Data published in PMC12136788.
The other results are listed elsewhere or left out.

T1: UNK ZnF1-3 (human, UniProt Q9C0B0 31-174)
T1 sequence: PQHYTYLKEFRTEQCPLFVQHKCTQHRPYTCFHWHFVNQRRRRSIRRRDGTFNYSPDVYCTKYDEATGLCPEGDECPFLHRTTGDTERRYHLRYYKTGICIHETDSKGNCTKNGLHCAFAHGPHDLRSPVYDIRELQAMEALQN

B1: 204304137_204304257_4015_3pUTR_ENSG00000173166_ENST00000319170|human|control|control (ssRNA)
RNA: GGGAGUUCUACAGUCCGACGAUCUGAAAAUAAAGUCCUAUGGUGGCUACCAGUCUCUGGAGAGCUUGGUGUUCUGGUCUCUUUUGGGGGGAGCAGGAGGGGGUCCUCUCCGCAACGUUGCAUAGCCUGAUAUAUGACUGCCUCCAACAGAGGAUUGAGCAUCA
B2: chr7:141445308:141445309:+_ENSG00000106028_ENST00000265304|hu_hu|hu_hu_hu_mus_False|48_88 (ssRNA)
RNA: GGGAGUUCUACAGUCCGACGAUCUAUGAUUGUUGUUGCUUGCCGCCUCACAUUAUUUUUAUCCAUGUACUCGCCAUAGUCCACUUUCCCUUCCAAAAAUAUACGAGCCCCCUUUUUCACAUACUGAUAUGCCACAUCUCUGAGCAACAGAGGAUUGAGCAUCA
B3: chr19:10626314:10626315:-_ENSMUSG00000024667_ENSMUST00000059582|mus_mus|FALSE|FALSE (ssRNA)
RNA: GGGAGUUCUACAGUCCGACGAUCCAUGCUGGAGAAGGUGGCCAGCGUGAGCAUCUCAAGCAGCAGCUCUGAGCCACAAAAGAAGAGCAAGAUACUGUUCAUGAUAGCUUCUAGGCGGAGCACGUAGGUCUGCAGCAGCAGGUACAACAGAGGAUUGAGCAUCA
B4: chr12:90018129:90018130:-_ENSG00000070961_ENST00000261173|hu_mus|FALSE|FALSE (ssRNA)
RNA: GGGAGUUCUACAGUCCGACGAUCCUCUGCAAGCCAUGGUCUUUUCUGAACCCAGAAGGUAUCGAUCACAAAAUACAACACUAGGAUGAUAACUGUGAUGGCAGACAUCAGCAGACCUGCUUUGCCAAUCUGAACAGCCAGCUUCAACAGAGGAUUGAGCAUCA
B5: chr7:54825262:54825263:-_ENSG00000132432_ENST00000352861|hu_hu|hu_hu_hu_mus_False|28_98 (ssRNA)
RNA: GGGAGUUCUACAGUCCGACGAUCCUGCCGGCUGGGCACAAACUGCAGCAUUACCUGAUCCAUGUUUGUUGGAUGGCGGAUUGAGAGCGUAGAGACACGUAGCUCAGGGAGCUUGCUAGCCCAACGGAACCGGAAGCUGGCAACCAACAGAGGAUUGAGCAUCA
B6: chrX:71549762:71549763:+_ENSMUSG00000019087_ENSMUST00000019231|mus_mus|mus_mus_mus_hu_False|18_88 (ssRNA)
RNA: GGGAGUUCUACAGUCCGACGAUCAAACCCGUGUACUUCUUAUUGUUACAUCACCCCCACCAGAAAACGAUAACGACAGCCAAGCAGGACAGACAGUUAAGUAGUACUUCCACACUCCGCAAAUUCAGGAGCCCUAUAACCUUACAACAGAGGAUUGAGCAUCA
B7: chr4:129192164:129192165:+_ENSMUSG00000047945_ENSMUST00000062356|mus_hu|FALSE|FALSE (ssRNA)
RNA: GGGAGUUCUACAGUCCGACGAUCAGAAUCACCCCCACCCUCCUUCCGAUUUCUCUUGAAGGACAGGCCGCUCAAUUUGAAAGGCUUCUUGAAAGAGAAUUUCUUCUUCUUCUUGGGGGUCUCCUUGGGGGGGACCUCCCCCUUCAACAGAGGAUUGAGCAUCA
B8: chr19:8913615:8913616:-_ENSMUSG00000071658_ENSMUST00000096259|mus_hu|mus_mus_mus_hu_False|38_88 (ssRNA)
RNA: GGGAGUUCUACAGUCCGACGAUCAGGGUACCAAAACCUUCUGCCUGAGAUAGGUGCCCCACCCAGUAGGGAGUUGCAGCUGAAAGUAUCUGAUGCACUGACAGUUACUAUACGAAAGGAGGCCCCUGGGGAGGGCCAGGCCAGCAACAGAGGAUUGAGCAUCA
B9: chr1:130485734:130485735:-_ENSMUSG00000045382_ENSMUST00000052172|mus_mus|mus_mus_mus_hu_False|68_78 (ssRNA)
RNA: GGGAGUUCUACAGUCCGACGAUCGAUGAAGGAGUCGAUGCUGAUCCCAAUGUAGUAUGGCAGCCAGCAGGCAAAGAAAGCCAGGAUGAGGAUGACUGUGGUCUUGAGGGCCUUGCGCUUCUGGUGGCCCUUGGAGUGUGACAGCAACAGAGGAUUGAGCAUCA
B10: chr7:7679991:7679992:-_ENSG00000106399_ENST00000396682|hu_hu|hu_hu_hu_mus_False|78_78 (ssRNA)
RNA: GGGAGUUCUACAGUCCGACGAUCUGGGAUGAAUCUUUUCCAGCUUCCCCACGAAGCAGACAGGCUUGUCGAUAUACUGUGGUAACAUGCUGGCGUUGACGCGCGCUUUGGGGAGCUGCAUUAUGUCCUCCAUGAUUCUGCCGCCAACAGAGGAUUGAGCAUCA
B11: chr2:62099399:62099400:-_ENSG00000115484_ENST00000544079|hu_mus|FALSE|FALSE (ssRNA)
RNA: GGGAGUUCUACAGUCCGACGAUCGUAGGACUCCAUACCACUCAGUGUUCGGGAGUACUCUGUCAGUCUGAGGGCCAGCUCUAUUUCUGGAGCACCACCUCCUGCAAUAAGAGCUCUUUUCUUUACUAAGCAUCGGAUGACACACAACAGAGGAUUGAGCAUCA
B12: chr1:52991732:52991733:-_ENSG00000134744_ENST00000257177|hu_mus|FALSE|FALSE (ssRNA)
RNA: GGGAGUUCUACAGUCCGACGAUCUUUAGGGCCUGGAACACUGGCAGCGUUUACUUUACAUGAUUUAGCUUCUGUUUUUUCUAUACAAAUAUCAUUUUGCUUGGUUUUUUUACUACUAUUUCUAUUCAGAGAGCUGGUCCCAAUCAACAGAGGAUUGAGCAUCA
B13: 65399146_65399266_674_3pUTR_ENSG00000258289_ENST00000359118|human|control|control (ssRNA)
RNA: GGGAGUUCUACAGUCCGACGAUCGAGUCCUGGUUCCUUUUAUUGGAAACCAAAAUCUGGGCACCAGGUGUGCUCCCAUUCUAGUUGUUUUCUGACCACAUAACUGCUAACAAAGAUGCUUCACUCUGGCUACACUGAUGUGAACAACAGAGGAUUGAGCAUCA
B14: chr7:138189096:138189097:+_ENSG00000122779_ENST00000415680|hu_hu|FALSE|FALSE (ssRNA)
RNA: GGGAGUUCUACAGUCCGACGAUCUGACUUUUCUACUGUACUGCUGGGAACCUCAGUAGUGUCCUUCACAAAAAAGUUAUCUAUGAUGUGUCUCUCUGCACAUUCUUGGCUGCAAACUGGGCAACGAAUGACUCCAACUUGGGUCAACAGAGGAUUGAGCAUCA
B15: chr17:13113627:13113628:+_ENSMUSG00000068039_ENSMUST00000151287|mus_mus|motif|central (ssRNA)
RNA: GGGAGUUCUACAGUCCGACGAUCAAGCUUCAUUUUUGUUUUCUGCAGGCUGAAGUCAAGACAAGCAAUUUUUGCAUUAACGGUUCUCUUGGGCAUGCCCUGAGAUCCAACCACACAAUUGAGCGCAUAGCCAUUGAUCAGCAUCAACAGAGGAUUGAGCAUCA
B16: 63119758_63128743_190_CDS_ENSG00000116641_ENST00000251157|human|control|control (ssRNA)
RNA: GGGAGUUCUACAGUCCGACGAUCAUCCACAGCCAAAGGAUGAGUAAUGAGGUAAUCUUCCAAAUCCACUGGAUCUACUGCUUCGGUAAGGGGCACUGUGGUGUGAUGGGAUAUAUUGCCAACAAUAUUAAGGUUUUUGAGCAGCAACAGAGGAUUGAGCAUCA
B17: chr10:33214929:33214930:-_ENSG00000150093_ENST00000302278|hu_hu|hu_hu_hu_mus_True|8_78 (ssRNA)
RNA: GGGAGUUCUACAGUCCGACGAUCAACAAGUUCAUUGAAAAACUCUCCUCUGUCAGUAAGACUGAGCACAUUUUUGUAGCUAAAUGGGCUGGUGCAGUUUUGUUCACUUGUACAAGGAUUUCUUAGCUUAGCUGGUGUUGUGCUCAACAGAGGAUUGAGCAUCA
B18: chr1:204511919:204511920:+_ENSG00000198625_ENST00000367182|hu_hu|FALSE|FALSE (ssRNA)
RNA: GGGAGUUCUACAGUCCGACGAUCGCCAGCUACAUCCCACUCCUCAAAUCCAAGGUCCAGCCUAGAUGUUUCAUCUUGGGCUAAAUUUUCAAUUAAGUCUUCAUCUUCUCUAGAAUGUAUGCAUUUAUGCUCUGAGGUAGGCAGCAACAGAGGAUUGAGCAUCA
B19: chr2:131139019:131139020:-_ENSMUSG00000048911_ENSMUST00000059372|mus_hu|FALSE|FALSE (ssRNA)
RNA: GGGAGUUCUACAGUCCGACGAUCAAUAUAUAUGUUGAGAGGCAGAUUCUGGAAUCCAAUAUUAGGCAUCCUGAAGUUGUAAUGUGGGAAAUCCGAGCUCAUGGAUGAACUUCCCUCCGUGAUCUCCAGGUGACAGCCCCGCUCCAACAGAGGAUUGAGCAUCA
B20: chr9:14812383:14812384:-_ENSMUSG00000031934_ENSMUST00000164273|mus_mus|mus_mus_mus_hu_True|1_38 (ssRNA)
RNA: GGGAGUUCUACAGUCCGACGAUCAUAGCCCAGGUAGAUACACGCUAACAGUAUAAUGAUGAGUGUCAGCAGGCGGCAGCUAAUGUACUUGAUGAUUAAAUGACUAGAAUUUUUCUUUGUCUUCAAGUACUGCUCCACGAUUGGCAACAGAGGAUUGAGCAUCA
B21: chr16:57473197:57473198:-_ENSG00000005194_ENST00000569370|hu_hu|FALSE|FALSE (ssRNA)
RNA: GGGAGUUCUACAGUCCGACGAUCGAUCCGGGCGAUUUCAGCCAAAAUCUCAGCACUGUGCAGAGUGGUGCUUCCUGGGACUAAACCUGACAAAAUAAUGUCAAAGCUGGAUUCUUUGUGGGCAGAUUGCAACAGCUGCUUGAUCAACAGAGGAUUGAGCAUCA
B22: chr7:140710375:140710376:-_ENSG00000090263_ENST00000324787|hu_mus|motif|central (ssRNA)
RNA: GGGAGUUCUACAGUCCGACGAUCGUUGUGAUUUGGAUACCAGUCAUAAGUCUCUUUCUUCUUGGCCAAGGGCUGCUCGCGGAACAGGCUCACCACUUUCAUGGACUUUGAGUCAGUAGACCUGGCCACUUCACCAAAGAUCCGCAACAGAGGAUUGAGCAUCA

molecular target: T1, UNK ZnF1-3; assay: nsRBNS (natural sequence RNA bind-n-seq); RBNS binding buffer (assumed for nsRBNS): 25 mM Tris pH 7.5, 150 mM KCl, 3 mM MgCl2, 0.01% Triton X-100, 500 ug/ml BSA, 20 U/ml SUPERase-In, 4 C; UNK is unkempt and MSI1 is Musashi-1; names of the RNAs are library labels; protein concentration not given here; high values mean tight binding

Row | Binder | binding signal [enrichment R]
1 | B1 | 1.35
2 | B2 | 0.897
3 | B3 | 2.34
4 | B4 | 1.19
5 | B5 | 1.05
6 | B6 | 1.88
7 | B7 | 1.38
8 | B8 | 1.17
9 | B9 | 1.41
10 | B10 | 0.684
11 | B11 | 0.997
12 | B12 | 0.722
13 | B13 | 0.74
14 | B14 | 0.798
15 | B15 | 0.7
16 | B16 | 2.51
17 | B17 | 1.26
18 | B18 | 1.02
19 | B19 | 0.938
20 | B20 | 0.997
21 | B21 | 1.21
22 | B22 | 0.499
